Earlier results in patent US4701406A, “Assay for the detection of epigenetic toxic (non-genotoxic) substances” (priority 1984, dated 1987).

Settings: Table I; recognized by U.S. Department of Health and Human Services; cited from earlier work

Structure (SMILES): O=[As][O-].[Na+] [As(III) as NaAsO2, NaAsO2]
- Health Hazardous Activity (carcinogen / promoter): carcinogen
